Reference: a compilation of properties of binary mixtures (doi:10.1016/j.molliq.2012.10.030)
The densities may have been worked out from excess volumes.

Test: xn = mol fraction of the nth substance listed
Conditions: 101 kPa

CNc1ccccc1 + CC[n+]1ccn(C)c1.F[B-](F)(F)F
mass density [kg/m3]
Conditions	293.15 K	298.15 K	303.15 K	308.15 K
x1 = 0.0712	–	1268.6	1265	1261
x1 = 0.0944	–	1264.8	1261.2	–
x1 = 0.1175	–	1260.8	1257.2	1253.2
x1 = 0.1685	1255.8	1251.6	1248.1	1244.1
x1 = 0.2164	–	–	1239	1235
x1 = 0.2818	1233.3	1229.2	–	1221.6
x1 = 0.3365	1221.3	–	1213.6	1209.6
x1 = 0.3805	1211.1	1206.9	1203.3	–
x1 = 0.4166	1202.2	1198.1	1194.4	1190.4
x1 = 0.4775	1186.3	1182.3	1178.6	1174.5
x1 = 0.5287	1172	1168	1164.2	1160.2
x1 = 0.5855	1154.9	1150.9	1147.2	1143.1
x1 = 0.6144	1145.7	1141.8	1138	1134
x1 = 0.6638	1129.3	1125.4	1121.5	–
x1 = 0.7202	1109.2	1105.3	1101.5	1097.5
x1 = 0.7822	1085.5	1081.6	1077.6	1073.7
x1 = 0.8343	1064	1060.2	1056.2	1052.3
x1 = 0.8775	1045.2	1041.3	1037.4	1033.5

Cc1ccccc1N + CC[n+]1ccn(C)c1.F[B-](F)(F)F
mass density [kg/m3]
Conditions	293.15 K	298.15 K	303.15 K	308.15 K
x1 = 0.0684	1273.7	1270.4	1268	1264.4
x1 = 0.0786	–	1268.9	–	1263.1
x1 = 0.1243	–	1262	1260	1256.7
x1 = 0.1783	–	1253.2	1251.2	1247.9
x1 = 0.2255	1248	1244.9	1242.8	–
x1 = 0.2781	1238.4	1235.1	–	1229.2
x1 = 0.3234	1229.6	–	1223.3	1219.8
x1 = 0.3712	–	–	1212.8	1209.1
x1 = 0.4096	1211	–	1203.8	1200.1
x1 = 0.4763	1195	1191.1	–	1183.5
x1 = 0.5242	1182.5	1178.5	1174.6	1170.8
x1 = 0.5781	1167.2	1163.4	1159.3	1155.6
x1 = 0.6254	1152.9	–	1145.1	–
x1 = 0.6771	1135.9	1132.3	1128.5	1124.9
x1 = 0.7226	1119.9	1116.5	1112.8	1109.3
x1 = 0.7683	1102.8	1099.6	1096	1092.7
x1 = 0.8276	1078.9	1075.8	1072.5	1069.3
x1 = 0.8687	1061.3	1058.2	1054.9	1051.6

Nc1ccccc1 + CC[n+]1ccn(C)c1.F[B-](F)(F)F
mass density [kg/m3]
Conditions	293.15 K	298.15 K	303.15 K	308.15 K
x1 = 0.0697	–	1272.5	1269.2	–
x1 = 0.0803	1274.4	1271.3	–	1264.6
x1 = 0.1286	1268.6	1265.8	1262.6	1259.3
x1 = 0.1717	–	1260.5	–	1254.1
x1 = 0.2251	1256.4	1253.5	1250.3	1247
x1 = 0.2724	1249.9	–	1243.4	1240.1
x1 = 0.3253	1241.9	–	1235	1231.6
x1 = 0.3805	1232.7	–	1225.4	1221.9
x1 = 0.4288	1223.7	1219.7	1216.2	1212.5
x1 = 0.4681	1215.7	1211.6	–	1204.2
x1 = 0.5287	1202	1197.8	1194.2	1190.2
x1 = 0.5755	–	1186	–	1178.5
x1 = 0.6258	–	1172.1	1168.5	1164.5
x1 = 0.6802	–	1155.5	1152	–
x1 = 0.7231	1144.7	1141.1	–	1133.8
x1 = 0.7785	1124.2	1120.8	1117.6	1113.7
x1 = 0.8257	1105.1	1102	1098.8	1094.8
x1 = 0.8697	–	–	1079.6	–
